No constants are given. Whether binding was seen depends on the method and setting. In cells and extracts the contact can be indirect. Some results given as binding are weak or reduced against the parent protein; the word gives no strength. For some of these results: Sequences can lack the tags named with a protein.
Assays:
EGFP-INPP5E [1] = molecular target: T1, EGFP-INPP5E (UniProt Q9NRR6); assay: co-IP; visible immunoprecipitation (VIP) assay with three coexpressed proteins fused to EGFP, mChe and tBFP in HEK293T cells; EGFP fusion precipitated with GST-anti-GFP nanobody beads; beads observed under a fluorescence microscope; vector ratios ARL3:INPP5E:PDE6D 1:6:1 or ARL13B:INPP5E:PDE6D 4:5:1
T1 sequence: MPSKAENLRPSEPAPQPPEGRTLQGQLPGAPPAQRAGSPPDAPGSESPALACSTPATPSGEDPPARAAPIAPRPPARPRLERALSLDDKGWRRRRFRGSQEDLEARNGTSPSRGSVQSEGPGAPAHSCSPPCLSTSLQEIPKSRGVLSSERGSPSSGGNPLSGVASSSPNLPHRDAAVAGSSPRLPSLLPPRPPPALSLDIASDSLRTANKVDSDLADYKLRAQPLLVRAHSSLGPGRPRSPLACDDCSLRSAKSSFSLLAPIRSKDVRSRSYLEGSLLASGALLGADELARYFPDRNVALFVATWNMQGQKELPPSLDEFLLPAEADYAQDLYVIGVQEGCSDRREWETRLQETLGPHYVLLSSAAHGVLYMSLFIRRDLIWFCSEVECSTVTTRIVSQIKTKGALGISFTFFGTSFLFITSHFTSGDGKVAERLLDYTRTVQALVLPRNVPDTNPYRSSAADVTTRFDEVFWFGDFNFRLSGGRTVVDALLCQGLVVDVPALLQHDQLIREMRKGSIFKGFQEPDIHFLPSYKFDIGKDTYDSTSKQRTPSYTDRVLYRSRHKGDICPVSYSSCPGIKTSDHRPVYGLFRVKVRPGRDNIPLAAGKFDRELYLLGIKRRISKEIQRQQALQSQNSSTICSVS

Sequences of proteins named here, by UniProt entry; tags and fusion partners are left off. A change or cut given only in a name is not applied to a line headed by its entry.
UniProt P36405: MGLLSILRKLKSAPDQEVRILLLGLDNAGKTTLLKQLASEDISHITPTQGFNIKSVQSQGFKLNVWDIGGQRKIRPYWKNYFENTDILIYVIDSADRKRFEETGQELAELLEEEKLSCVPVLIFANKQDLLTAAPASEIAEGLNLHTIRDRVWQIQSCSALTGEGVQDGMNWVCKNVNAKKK
UniProt Q3SXY8: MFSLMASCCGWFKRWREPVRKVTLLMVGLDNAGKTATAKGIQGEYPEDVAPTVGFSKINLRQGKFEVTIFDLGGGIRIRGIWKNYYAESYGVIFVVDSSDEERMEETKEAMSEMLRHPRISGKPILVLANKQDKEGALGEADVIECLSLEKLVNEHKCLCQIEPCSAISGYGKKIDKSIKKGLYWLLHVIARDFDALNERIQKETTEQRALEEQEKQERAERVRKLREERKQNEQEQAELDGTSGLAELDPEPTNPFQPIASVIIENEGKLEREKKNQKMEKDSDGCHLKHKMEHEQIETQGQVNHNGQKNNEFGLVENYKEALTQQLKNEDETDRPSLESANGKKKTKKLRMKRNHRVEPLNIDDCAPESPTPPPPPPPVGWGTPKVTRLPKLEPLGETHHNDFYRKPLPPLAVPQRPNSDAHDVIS

EGFP-PDE6D (human) [2] = molecular target: EGFP-PDE6D (human) (UniProt O43924); assay: as above
EGFP-fused INPP5E(ΔCTS) = molecular target: T2, EGFP-fused INPP5E(ΔCTS) (UniProt Q9NRR6); assay: co-IP; visible immunoprecipitation (VIP) assay followed by immunoblotting (anti-mChe, anti-GFP); lysates of HEK293T cells coexpressing two fluorescent fusion proteins; EGFP fusion precipitated with GST-fused anti-GFP nanobody prebound to glutathione-Sepharose beads; lysis buffer 50 mM HEPES pH 7.4, 100 mM KCl, 1 mM DTT, 5 mM NaCl, 3 mM MgCl2, 0.5% Triton X100, 10% glycerol
T2 sequence: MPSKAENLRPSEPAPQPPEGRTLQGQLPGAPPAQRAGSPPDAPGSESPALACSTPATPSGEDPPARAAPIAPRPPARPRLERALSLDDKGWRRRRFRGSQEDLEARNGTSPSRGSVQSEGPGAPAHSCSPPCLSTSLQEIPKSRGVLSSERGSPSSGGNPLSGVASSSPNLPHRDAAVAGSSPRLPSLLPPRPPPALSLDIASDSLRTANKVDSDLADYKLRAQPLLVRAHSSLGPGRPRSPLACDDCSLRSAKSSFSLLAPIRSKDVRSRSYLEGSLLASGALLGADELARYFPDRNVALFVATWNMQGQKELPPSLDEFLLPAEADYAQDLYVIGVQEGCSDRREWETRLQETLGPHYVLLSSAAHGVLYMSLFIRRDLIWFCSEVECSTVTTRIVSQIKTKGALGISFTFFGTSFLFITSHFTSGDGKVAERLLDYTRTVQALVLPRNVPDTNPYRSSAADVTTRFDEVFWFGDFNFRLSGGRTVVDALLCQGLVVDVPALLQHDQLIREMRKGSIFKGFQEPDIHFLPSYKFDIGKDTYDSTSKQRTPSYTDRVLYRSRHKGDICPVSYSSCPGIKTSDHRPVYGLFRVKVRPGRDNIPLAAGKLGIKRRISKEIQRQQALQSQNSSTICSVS

EGFP-INPP5E [3] = molecular target: T1, EGFP-INPP5E; assay: as above
EGFP-fused INPP5E(1-626) = molecular target: T3, EGFP-fused INPP5E(1-626) (UniProt Q9NRR6); assay: as above
T3 sequence: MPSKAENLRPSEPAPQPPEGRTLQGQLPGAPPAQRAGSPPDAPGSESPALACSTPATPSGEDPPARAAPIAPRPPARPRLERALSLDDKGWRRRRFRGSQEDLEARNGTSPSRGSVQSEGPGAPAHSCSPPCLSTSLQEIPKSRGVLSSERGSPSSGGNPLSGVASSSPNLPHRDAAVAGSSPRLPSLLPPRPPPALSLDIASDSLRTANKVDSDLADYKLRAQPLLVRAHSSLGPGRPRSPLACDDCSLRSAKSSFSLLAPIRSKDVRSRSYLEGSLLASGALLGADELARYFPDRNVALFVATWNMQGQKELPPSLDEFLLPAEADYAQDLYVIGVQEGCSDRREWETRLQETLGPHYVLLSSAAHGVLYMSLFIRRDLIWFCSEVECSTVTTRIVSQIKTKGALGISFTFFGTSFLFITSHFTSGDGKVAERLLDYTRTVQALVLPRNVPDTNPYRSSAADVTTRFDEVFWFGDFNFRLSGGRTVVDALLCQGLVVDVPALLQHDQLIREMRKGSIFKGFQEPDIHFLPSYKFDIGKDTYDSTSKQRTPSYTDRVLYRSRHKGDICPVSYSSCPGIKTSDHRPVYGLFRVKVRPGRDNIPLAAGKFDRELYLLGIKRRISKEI

EGFP-PDE6D (human) [4] = molecular target: EGFP-PDE6D (human) (UniProt O43924); assay: as above
ARL3-EGFP (human) = ARL3-EGFP (human) (UniProt P36405); assay: co-IP; visible immunoprecipitation (VIP) assay with three coexpressed proteins fused to EGFP, mChe and tBFP in HEK293T cells; EGFP fusion precipitated with GST-anti-GFP nanobody beads; beads observed under a fluorescence microscope; vector ratios ARL3:INPP5E:PDE6D 1:6:1 or ARL13B:INPP5E:PDE6D 4:5:1
ARL13B(WT)-EGFP = ARL13B(WT)-EGFP (UniProt Q3SXY8); assay: as above

tBFP-fused ARL3 (from UniProt P36405 1-182)
binding (EGFP-INPP5E [1]): no binding

ARL13B-mChe (from UniProt Q3SXY8 1-428)
binding (EGFP-PDE6D (human) [2]): no binding | binding (EGFP-fused INPP5E(ΔCTS)): no binding | binding (EGFP-INPP5E [3]): binds | binding (EGFP-fused INPP5E(1-626)): binds

mChe-fused ARL3(T31N) (from UniProt P36405 1-182)
binding (EGFP-PDE6D (human) [4]): no binding

mChe-PDE6D (from UniProt O43924 1-150)
binding (ARL3-EGFP (human)): binds | binding (EGFP-INPP5E [1]): binds | binding (ARL13B(WT)-EGFP): no binding

mChe-fused ARL3(Q71L) (from UniProt P36405 1-182)
binding (EGFP-PDE6D (human) [4]): binds

tBFP-PDE6D (from UniProt O43924 1-150)
binding (ARL3-EGFP (human)): binds | binding (EGFP-INPP5E [1]): binds | binding (ARL13B(WT)-EGFP): no binding

tBFP-fused ARL13B (from UniProt Q3SXY8 1-428)
binding (EGFP-PDE6D (human) [2]): no binding

mChe-fused wild-type (WT) ARL3 (from UniProt P36405 1-182)
binding (EGFP-INPP5E [1]): no binding | binding (EGFP-PDE6D (human) [4]): binds
